“And” between values parts separate entries of the source, which are not always exact repeats. Equal values may be shown once. Among all 290,000 compounds or so, about 2,100 (0.72%) were called active. Inconclusive results, whose numbers are uncertain, are shown with a selection of clear calls. The call rests on the fitted dose curve; in most records, active means well fitted inhibition curve with a large enough effect; inconclusive means small, poorly fitted or top-dose-only effect, or effect the other way; inactive means flat fitted curve, though single readings scatter. Potencies beside an inconclusive call are fits to weak or partial responses and may not hold up.
Molecular target: Fructose-bisphosphate aldolase (Giardia intestinalis (strain ATCC 50803 / WB clone C6)) (UniProt A8B2U2)
Assay: qHTS Assay for Inhibitors of Fructose-1,6-bisphosphate Aldolase from Giardia Lamblia; further: nearly all actives have a fitted effect of over 55% in size
Conditions: purified Giardia FBPA; series mostly up to 59.6 µM
In short: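 Giardia FBPA (40 nM reagent) was preincubated 10 min at RT with compound (up to 57.5 uM final), then substrate plus GAPDH/TPI/NAD/arsenate coupling system with diaphorase/resazurin was added; resorufin fluorescence (525/598 nm) was read after 20 min.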
Potency means the concentration at half of the fitted maximal effect; tags describe the fitted curve by direction and shape.

UniProt A8B2U2, sequence (A8B2U2 whole entry, looked up): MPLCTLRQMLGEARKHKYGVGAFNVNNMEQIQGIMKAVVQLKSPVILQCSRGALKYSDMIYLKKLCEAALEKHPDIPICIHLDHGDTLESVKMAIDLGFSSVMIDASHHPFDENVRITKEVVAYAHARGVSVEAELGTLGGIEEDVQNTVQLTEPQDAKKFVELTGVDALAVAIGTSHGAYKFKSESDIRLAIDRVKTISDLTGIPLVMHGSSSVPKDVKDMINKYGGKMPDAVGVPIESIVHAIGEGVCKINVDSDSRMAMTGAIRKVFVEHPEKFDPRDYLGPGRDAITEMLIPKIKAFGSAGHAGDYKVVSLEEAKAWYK

| Structure (SMILES) | Potency |
| --- | --- |
| O=C(CSc1nc2nc(-c3cccs3)cc(C(F)(F)F)c2c(=O)[nH]1)C(F)(F)F | inconclusive: 5.62 µM [inhibitor, partial curve] |
| Cc1sc(NC(=O)/C=C/c2ccco2)c(C(=O)O)c1C | inconclusive: 15.8 µM [inhibitor, partial curve] |
| C=CCn1c(C)cc(-c2csc(NCC)n2)c1C | inconclusive: 15.8 µM [inhibitor, single point] |
| CC(CCc1ccc(O)cc1)NCc1ccc(Cl)cc1Cl (stereo unspecified) | inconclusive: 39.8 µM [inhibitor, single point] |
| Cc1ccc(CNc2ccc3c(c2)OCO3)cc1 | inconclusive: 2 µM [inhibitor, partial curve] |
| COc1ccc(NC(=O)CSc2nn3c(=O)c(C)nnc3s2)cc1 | inconclusive: 7.94 µM [inhibitor, partial curve] |
| O=C1/C(=C/c2ccc3c(c2)OCO3)Oc2cc(OCC(=O)N3CCC[C@H]3C(=O)O)ccc21 | inactive |
| O=C(O)CC1S/C(=N/N=C/c2ccc(-c3ccccc3[N+](=O)[O-])o2)NC1=O (stereo unspecified) | inconclusive: 1.77 µM [inhibitor, full curve] |
| COc1ccccc1/C=C/C=N/NC(=O)c1cccs1 | inconclusive: 17.7 µM [inhibitor, single point] |
| Cc1ccc(NC(=O)CN2CCN(C)CC2)cc1Br | active: 15.8 µM |
| COc1ccc(-c2c(C(=O)O)nc3ccccc3c2C(=O)O)cc1 | inconclusive: 28.2 µM [inhibitor, single point] |
| CCCN(c1ccccc1C(=O)O)S(=O)(=O)c1ccc2c(c1)n(C)c(=O)n2C | inactive |
| O=C(Nc1nc(=O)c2ccccc2s1)c1ccc(F)cc1 | inconclusive: 25.1 µM [inhibitor, partial curve] |
| Oc1cccc(/C=N/Nc2ccc(Cl)nn2)c1O | inconclusive: 10 µM [inhibitor, partial curve] |
| CC(=O)N1CCc2cc(S(=O)(=O)NCCN3CCC(C)CC3)ccc21 | inactive |
| Cc1cc(C)c(/C=N/NC(N)=O)c(C)c1/C=N/NC(N)=O | inactive |
| COc1ccc2c(c1)c(C(O)CN1CCN(Cc3ccc4c(c3)OCO4)CC1)c(C)n2C (stereo unspecified) | inactive |
| CC(C)=NNc1nc2c(c(=O)n(C)c(=O)n2C)n1C | inconclusive: 14.1 µM [inhibitor, partial curve] |
| CC1(OC(=O)CCc2ccccc2)C(=O)C=C2C=C(c3ccc(C#N)cc3)N(CCN3CCOCC3)C=C2C1=O (stereo unspecified) | inconclusive: 792 nM [inhibitor, full curve] and inconclusive: 706 nM [inhibitor, full curve] |
| O=C(Nc1nnc(C(F)(F)F)s1)c1ccc(Br)s1 | inconclusive: 17.7 µM [inhibitor, partial curve] |
| O=C(CCNS(=O)(=O)c1ccc2[nH]c(=O)oc2c1)Nc1cccc(Br)c1 | inconclusive: 14.1 µM [inhibitor, partial curve] |
| O=CNc1ccc(OC(=O)c2cncc(Br)c2)cc1 | inactive |
| COc1cc(/C=C/c2ccc3c(Br)cc(Br)c(O)c3n2)ccc1O | inconclusive: 20 µM [activator, single point] |
| O=c1cc(N2CCc3ccccc32)[nH]c(=O)n1-c1ccc(Br)cc1 | inconclusive: 15.8 µM [inhibitor, single point] |

| Structure (SMILES) | Potency |
| --- | --- |
| CCOC(=O)C1=C(O)/C(=C\c2cc(C)n(-c3ccccc3F)c2C)N=C1C | inconclusive: 11.2 µM [inhibitor, partial curve] |
| Cc1ccc(N2CC(C(=O)Nc3cccc(F)c3)CC2=O)cc1 (stereo unspecified) | inactive |
| COc1ccc2cc3cc(C(=O)NCCCN4CCOCC4)oc3nc2c1 | inactive |
| O=C(CN1CCN(Cc2ccccc2)CC1)N1CCCc2ccccc21 | inconclusive: 15.8 µM [inhibitor, partial curve] |
| S=C(NCCN1CCOCC1)Nc1ccc(-c2nc3ccccc3[nH]2)cc1 | inactive |
| CC1(C)Cc2c(sc3c2C2=NCCN2C=N3)CO1 | inconclusive: 31.6 µM [inhibitor, single point] |
| CCc1nnc(NC(=O)c2ccc(S(=O)(=O)N(CC(C)C)CC(C)C)cc2)o1 | inconclusive: 5 µM [activator, single point] |
| Cc1ccccc1CNCc1ccc2c(c1)OCO2 | inconclusive: 14.1 µM [inhibitor, partial curve] |
| O=C(NC(=S)N1CCN(c2ccccn2)CC1)c1ccco1 | inconclusive: 14.1 µM [inhibitor, partial curve] |
| COc1cc2sc(C)nc2c2ccccc12 | inconclusive: 25.1 µM [inhibitor, partial curve] |
| Cc1nnc(NC(=O)c2ccc(S(=O)(=O)N3CCCCC3C)cc2)o1 (stereo unspecified) | inconclusive: 35.5 µM [inhibitor, single point] |
| CNc1ccccc1C(=O)N1CCc2c([nH]c3ccccc23)C1=O | inactive |
| O=C(/C=C/c1ccc(Cl)cc1)NC(=S)N1C[C@H]2C[C@H](C1)c1cccc(=O)n1C2 | active: 7.08 µM |
| CCN(CC)c1cc(C)c(C#N)c2nc3ccccc3n12 | inactive |
| CC(=O)OCC1OC(Oc2cc(OC(C)=O)c3c(=O)cc(-c4ccc(OC(C)=O)cc4)oc3c2)[C@@H](OC(C)=O)C(OC(C)=O)C1OC(C)=O (stereo partly specified) | inactive |
| COc1ccc(CNCC(=O)Nc2sccc2C#N)cc1 | inconclusive: 12.6 µM [inhibitor, partial curve] |
| CCOc1ccc2[nH]c3nc(SCC(=O)OC(C)C)nnc3c2c1 | inconclusive: 28.2 µM [inhibitor, single point] |
| Nc1c(NCCN2CCOCC2)c2ccccc2oc1=O | inconclusive: 11.2 µM [inhibitor, partial curve] |
| CN(C)CCCNCC(=O)c1c(-c2ccccc2)n(C)c2ccccc12 | active: 14.1 µM |
| CCn1c(=O)cc(SCC(=O)Nc2cccnc2)c2ccccc21 | inactive |
| O=C(C[n+]1ccccc1)Nc1ccccc1Br | inconclusive: 44.6 µM [inhibitor, single point] |
| CC1CCCN(C2=C(NS(=O)(=O)c3ccc(Cl)cc3)C(=O)c3ccccc3C2=O)C1 (stereo unspecified) | inconclusive: 5.61 µM [inhibitor, partial curve] |
| O=C(CN1CC(=O)Oc2ccccc21)OCC(=O)c1cccc(Br)c1 | inconclusive: 0.63 µM [inhibitor, full curve] |
| O=C(O)c1ccc(Nc2nc3ccc(Cl)cc3[nH]2)cc1 | inconclusive: 20 µM [inhibitor, partial curve] |

| Structure (SMILES) | Potency |
| --- | --- |
| Cc1cc(Sc2ncnc(N)c2[N+](=O)[O-])ncn1 | inconclusive: 15.8 µM [inhibitor, single point] |
| C[n+]1cccc2c(Br)ccc([O-])c21 | active: 0.177 µM |
| O=C(O)C1Nc2c(O)cc(Cl)c([N+](=O)[O-])c2C2C=CCC12 (stereo unspecified) | inconclusive: 15.8 µM [inhibitor, partial curve] |
| CCC(C)N1CCN(S(=O)(=O)c2ccc(NC(C)=O)cc2)CC1 (stereo unspecified) | inconclusive: 5 µM [inhibitor, single point] |
| O=C(O)c1ccc(NC2=C(Cl)C(=O)c3ccccc3C2=O)cc1 | inconclusive: 39.7 µM [activator, single point] |
| Cc1cc(C)c(OCCCCN(C)C)c(Br)c1 | inconclusive: 15.8 µM [inhibitor, partial curve] |
| CCc1cccc2c(C(=O)CCl)c[nH]c12 | inactive |
| CN1CCN(C2=Cc3cc(Cl)ccc3Sc3cc(F)ccc32)CC1 | inconclusive: 11.2 µM [inhibitor, partial curve, poor fit] |
| S=C(c1nc2ccccc2[nH]1)N1CCOCC1 | inconclusive: 17.7 µM [inhibitor, partial curve] |
| O=C(O)c1ccc2cccnc2n1 | active: 5.61 µM |
| Cc1ccc(C)c(NC(=S)/C(=C(\[O-])c2ccc(Cl)s2)[n+]2ccccc2)c1 | inconclusive: 14.1 µM [inhibitor, partial curve] |
| CCc1nnc(SCC(=O)Nc2nnc(C)s2)n1CC1CCCO1 (stereo unspecified) | inconclusive: 12.6 µM [inhibitor, partial curve] |
| O=C(N/N=C/c1cn(-c2ccccc2)nc1-c1cccnc1)c1ccccc1 | inactive |
| CCCCc1ncc(CN2CCC(n3nccc3NC(=O)c3ccccc3OC)CC2)[nH]1 | inconclusive: 15.8 µM [inhibitor, partial curve] |
| Cc1cc(=O)n2cccc(O)c2n1 | active: 19.9 µM |
| CCOC(=O)CNC(=O)CSc1nnc(C)c(=O)[nH]1 | inactive |
| COC(=O)[C@@H]1[C@@H]2C[C@H]3c4[nH]c5cc(OC)ccc5c4CCN3C[C@@H]2C[C@H](OC(=O)/C=C\c2cc(OC)c(OC)c(OC)c2)[C@H]1OC | inconclusive: 14.1 µM [inhibitor, partial curve] |
| COC(=O)c1ccc(NC(=O)CSc2nnc(CNc3ccc(OC)cc3)n2C)cc1 | inconclusive: 14.1 µM [inhibitor, partial curve] |
| COc1ccc(C(=O)NC(=S)N2CCOCC2)cc1Br | active: 15.8 µM |
| Cc1cc2cc(C(c3nnnn3Cc3ccco3)N3CCc4ccccc43)c(=O)[nH]c2cc1C (stereo unspecified) | inconclusive: 15.8 µM [inhibitor, partial curve] |
| CCc1nc2nc(C)c(NS(=O)(=O)c3cccs3)c(=O)n2[nH]1 | inconclusive: 17.8 µM [inhibitor, single point] |
| CSc1nnc(NC(=O)c2nc(S(=O)(=O)Cc3ccccc3F)ncc2Cl)s1 | inconclusive: 35.5 µM [inhibitor, partial curve] |
| O=C(Nn1cc(C(=O)N2CCN(c3ccccc3F)CC2)c2ccccc2c1=O)c1cnccn1 | inconclusive: 35.4 µM [inhibitor, single point] |

Source: PubChem BioAssay AID2451 (National Center for Advancing Translational Sciences (NCATS), 2010)
